The values below are quoted from earlier work in US20110201665A1, “Compositions, Methods, and Kits for Treating Influenza Viral Infections” (priority 2009, published 2011).

The test system of one series is influenza A, B, and C. Conditions: cited from earlier work.
Another series concerns influenza A and B virus. Conditions: cited from earlier work.
Another series has as its system influenza A or B viruses. Conditions: human, in vivo, po; cited from earlier work.

Consider `NC(=O)c1nc(F)cnc1O` [T-705, 6-fluoro-3-hydroxy-2-pyrazinecarboxamide], for which the “inhibitory activity against influenza A, B, and C” value in the series with influenza A, B, and C is on record as “potent inhibitory activity”.
In the case of `CCC(CC)[C@H](NC(C)=O)[C@@H]1[C@H](O)[C@@H](C(=O)O)C[C@H]1NC(=N)N` [peramivir, (1S,2S,3S,4R)-3-[(1S)-1-Acetamido-2-ethyl-butyl]-4-(diaminomethylideneamino)-2-hydroxy-cyclopentane-1-carboxylic acid], the “inhibition of influenza A and B virus replication in cell culture” value in the series with influenza A and B virus is “potent inhibitor”. For the same molecule, in the series with influenza A or B viruses, the “nasal wash virus titers” value was “significantly reduced”.
